# Screen size: about 310,000 compounds; about 14,000 (4.5%) showed an effect of 50% or more. Effects have a minus sign here. The list shows a part of the results.
# Target: human ether-à-go-go-related gene (hERG) potassium channel (human, UniProt Q12809)
# Assay: primary screen, population patch clamp on CHO cells stably expressing hERG
# 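Note: peak tail current of the secondary pulse compared with the same well before compound.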
# human ether-à-go-go-related gene (hERG) potassium channel, sequence (Q12809 whole entry, looked up): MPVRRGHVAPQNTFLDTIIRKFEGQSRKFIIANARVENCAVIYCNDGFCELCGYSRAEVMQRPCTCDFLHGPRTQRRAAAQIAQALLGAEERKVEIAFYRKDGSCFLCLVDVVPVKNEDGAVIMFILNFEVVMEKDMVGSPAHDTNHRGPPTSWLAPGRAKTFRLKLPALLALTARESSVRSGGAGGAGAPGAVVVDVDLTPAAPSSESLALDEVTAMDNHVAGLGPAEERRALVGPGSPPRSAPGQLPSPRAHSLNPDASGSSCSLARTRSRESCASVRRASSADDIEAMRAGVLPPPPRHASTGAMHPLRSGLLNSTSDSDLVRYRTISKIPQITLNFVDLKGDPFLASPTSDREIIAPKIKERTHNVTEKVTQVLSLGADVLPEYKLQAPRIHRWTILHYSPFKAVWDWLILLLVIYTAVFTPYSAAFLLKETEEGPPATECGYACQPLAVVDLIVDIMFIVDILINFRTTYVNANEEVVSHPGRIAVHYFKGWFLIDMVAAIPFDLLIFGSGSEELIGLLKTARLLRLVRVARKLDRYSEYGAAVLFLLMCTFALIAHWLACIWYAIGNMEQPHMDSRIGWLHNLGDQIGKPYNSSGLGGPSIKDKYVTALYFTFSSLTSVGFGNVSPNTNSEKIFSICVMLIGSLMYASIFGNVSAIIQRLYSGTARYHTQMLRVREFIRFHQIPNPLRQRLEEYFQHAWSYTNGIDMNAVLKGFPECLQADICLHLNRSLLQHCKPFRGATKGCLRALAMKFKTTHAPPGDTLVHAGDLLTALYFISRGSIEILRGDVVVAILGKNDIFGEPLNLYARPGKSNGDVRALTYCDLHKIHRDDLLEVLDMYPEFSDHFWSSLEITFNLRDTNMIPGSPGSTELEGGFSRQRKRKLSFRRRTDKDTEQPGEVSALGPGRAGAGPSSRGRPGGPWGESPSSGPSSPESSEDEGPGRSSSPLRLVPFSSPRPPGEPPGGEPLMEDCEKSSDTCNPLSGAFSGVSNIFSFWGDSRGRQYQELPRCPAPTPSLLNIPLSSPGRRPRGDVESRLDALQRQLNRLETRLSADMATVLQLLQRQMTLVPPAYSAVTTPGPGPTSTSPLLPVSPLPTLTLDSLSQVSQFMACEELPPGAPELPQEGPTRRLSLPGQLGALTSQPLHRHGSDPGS
row,Compound,"hERG current change (%, negative = inhibition) at 10uM [%]"
1,CN1CCN(c2ccccc2NC(=O)c2ccc(F)cc2)CC1,-40.7
2,CCCCc1nc2ccccc2c(=O)n1-c1ccccc1O,18
3,Cc1ccc2sc(-c3ccc(NC(=O)c4cc(-n5cnnc5)ccc4Cl)cc3)nc2c1,6.22
4,Cn1cc(C(=O)c2ccc(Cl)cc2Cl)cc1C=O,-15.4
5,Cc1c(NC(=O)CN2CCCc3ccccc32)c(=O)n(-c2ccccc2)n1C,-0.4
6,Cc1ccc2c(c1)C(=O)CC(O)(C(F)(F)F)O2 (stereo not shown),17.1
7,CCCn1nnc2c(=O)oc3ccccc3c21,3.77
8,CCOCC(=O)Nc1nnc(Cc2ccc(OC)cc2)s1,11.4
9,CC(Sc1ccc(Cl)cc1)C(=O)NCC(c1ccco1)N1CCCCC1 (stereo not shown),-54.1
10,CCCC(=O)Nc1ccc(Cl)c(NC(=O)c2ccco2)c1,-10.5
11,O=C1CCCN1CCC1CCCCN1Cc1nc(COc2ccccc2)no1 (stereo not shown),16.5
12,Cn1cccc1C(=O)NCc1ccc(S(N)(=O)=O)cc1,14
13,Cc1ccc(CN2C3CCCC2CC(NC(=O)c2ccc(F)cc2)C3)cc1 (stereo not shown),-74.1
14,CC(=O)O/N=C/c1c(Cl)n(C)c2ccccc12,-2.65
15,COc1ccc(OC)c(CN2C(=O)CCC2(C)C(=O)NC2CCCCCC2)c1 (stereo not shown),-19.7
16,Cc1onc(-c2ccccc2)c1C(=O)Nc1nnc(N2CCCCCC2)s1,-22.2
17,Cc1nnc(NC(=O)c2ccc3c(c2)C(=O)N(CC2CCCO2)C3=O)s1 (stereo not shown),-16.2
18,CCn1cc(C(=O)NCc2ccc3c(c2)OCO3)c2cc(OC)c(OC)cc2c1=O,2.11
19,NS(=O)(=O)c1ccc(NC(=O)CN2C(=O)C3C4C=CC(C4)C3C2=O)cc1 (stereo not shown),17.6
20,Cn1c(SCC(=O)NCc2cccs2)nnc1-c1cccs1,-23.6

row,Compound,"hERG current change (%, negative = inhibition) at 10uM [%]"
1,CCOc1ccc(CCNC(=O)CN(C)S(=O)(=O)c2cccs2)cc1OCC,10.2
2,CCCCc1ccc(NC2=NCCCS2)cc1,-35.9
3,Cn1c(N)c(C(=O)COC(=O)CC2CC3CCC2C3)c(=O)n(C)c1=O (stereo not shown),-64.4
4,O=C(CSc1ccc2nc(-c3ccccc3)cn2n1)NCC1CCCO1 (stereo not shown),-18
5,C=CCn1cc(/C=N/NC(=O)COc2cccc3cccnc23)c2ccccc21,9.18
6,CCn1c(O)c(N=Nc2ccc3ccccc3n2)c2ccccc21,3.85
7,CCOC(=O)N1CCN(Cc2ccccc2Cl)CC1,5.87
8,NC1=NC(=O)/C(=C/c2cn(CCC(=O)O)nc2-c2ccc(F)cc2)S1,-1.99
9,COc1cccc(CNC(=O)CCNC(=O)C2CCN(S(=O)(=O)c3ccc(F)cc3)CC2)c1,-10.2
10,CCOc1cc(/C=C2\SC(=Nc3ccccc3)N(c3ccccc3)C2=O)ccc1OCC(=O)O,-17.9
11,COc1ccc(NC(=O)CSc2nc3ccccc3c(=O)n2CCNC(C)=O)c(OC)c1,-25.1
12,COc1ccc(N(C(=O)c2cc3ccccc3oc2=O)C2C=CS(=O)(=O)C2)cc1 (stereo not shown),8.03
13,COC(=O)NNC(=O)c1ccccc1C,-11.7
14,COC(=O)c1cc(S(=O)(=O)NCCc2ccccc2)c[nH]1,5.93
15,Cc1cc(C)n(-c2ccc(NC(=O)C3CCCCN3C(=O)c3cccs3)cc2)n1 (stereo not shown),-21.3
16,CCn1cc(C(=O)OCC(=O)c2ccc(Cl)cc2)c(=O)c2ccc(C)nc21,-46.6
17,O=C(NCc1ccc(Cl)cc1)C1CCCO1 (stereo not shown),23.6
18,CCOC(=O)c1c(NC(=O)c2ccc(S(=O)(=O)N(C)CC3CCCO3)cc2)sc2c1CC(C)(C)NC2(C)C (stereo not shown),-6.96
19,CCN(c1cccc(C)c1)S(=O)(=O)c1ccc(OC)c([N+](=O)[O-])c1,13.5
20,CCOC(=O)C(c1ccccc1)C(Nc1ccccc1)c1ccccn1 (stereo not shown),8.6

row,Compound,"hERG current change (%, negative = inhibition) at 10uM [%]"
1,CN1CCN(CCOCCOc2ccc(Br)cc2Cl)CC1.O=C(O)C(=O)O,-14.2
2,CCOC(=O)c1c(C)n(-c2ccc(OC)cc2)c2c(C/C(C)=N/O)c(Br)c(OC)c(O)c12,1.92
3,CCOC(=O)c1[nH]c(C)c(/C(O)=C2\C(=O)C(=O)N(CCN(C)C)C2c2ccncc2)c1C (stereo not shown),17.1
4,Cc1cccc(NC(=O)CSc2nncn2-c2ccccn2)c1,-1.31
5,COc1ccc(/C=N/NC(=O)C2COc3ccccc3O2)cc1OC (stereo not shown),27.9
6,CCOC(=O)C1CCN(C(=O)COc2cc(C)c(Br)c(C)c2)CC1,-43.2
7,CC1CCCC(NC(=O)CSc2nnc(N)s2)C1C (stereo not shown),9.19
8,CC(=O)c1sc(NC(=O)C2COc3ccccc3O2)nc1C (stereo not shown),-10.2
9,Cc1cc(-c2ccccc2)n[nH]1,10.5
10,CCOc1ccccc1NC(=S)N1CCC(NC(=O)NC23CC4CC(CC(C4)C2)C3)CC1,-13.7
11,Cc1ccc(/C=C/C(=O)N2CCN(c3ncccn3)CC2)o1,2.26
12,N/C(COc1ccc(Cl)cc1)=N\NS(=O)(=O)c1ccccc1,7.04
13,CC(=O)N/C(N)=N/c1nc2cc(C)ccc2o1,2.68
14,Cc1ccc(-c2cc(-c3nnc(SCC(=O)NCC(C)C)n3N)c3ccccc3n2)cc1,-3.71
15,CC(OC(=O)Cn1cnc2c1c(=O)n(C)c(=O)n2C)C(=O)NC1CCCCC1C (stereo not shown),15.4
16,NC(=O)NCc1ccc(Cl)cc1,10.8
17,COc1ccc(OCc2nnc(SCC(=O)N3CCCc4ccccc43)n2-c2ccc(C)cc2)cc1,-3.12
18,Cc1cccc(NC(=O)N(C)Cc2cccs2)c1,-1.06
